Assay results: publication PMC8342319, “Predicting blood-to-plasma concentration ratios of drugs from chemical structures and volumes of distribution in humans” (Molecular Diversity, 2021)
Read-outs that look alike come from different tables or passages of the source.

Experiments:
plasma protein [1] = details: cited from earlier work; for fp_Human (free fraction in plasma): human
[2] = human, cited from earlier work
plasma protein [3] = experiment: Measurement of PPB by equilibrium dialysis in pooled human plasma (free fraction); details: for fp_Human: human plasma free fraction, footnote b: fu is our experimental data; for fraction unbound at 5 h, 5 µM: human, pooled human plasma
[4] = human
[5] = collected value, median if multiple values were reported, ref: Table S1
[6] = intravenous, median if multiple values were reported, ref numbers in Table S1
[7] = intravenous, median if multiple values reported, Reference of Table S1

| SMILES | in vivo Vd_(L/kg)_Human [2, 6] [L/kg] | fp_Human (plasma protein [3]) | fraction unbound at 5 h, 5 µM (plasma protein [3]) | also measured |
| --- | --- | --- | --- | --- |
| CCCCc1oc2ccccc2c1C(=O)c1cc(I)c(OCCN(CC)CC)c(I)c1 [Amiodarone] | 63.000 | – | – | fp_Human (free fraction in plasma) (plasma protein [1]; [5]): 0.025 |
| CC(C)NCC(O)COc1ccc(CC(N)=O)cc1 (centres unmarked) [Atenolol] | 0.950 | 1.000 | 1 | – |
| CC1=C(C(=O)O)N2C(=O)[C@@H](NC(=O)[C@H](N)c3ccccc3)[C@H]2SC1 [Cephalexin] | 0.210 | – | – | – |
| CN1C(=O)CN=C(c2ccccc2)c2cc(Cl)ccc21 [Diazepam] | – | – | – | fp_Human (plasma protein [1]): 0.023; fp_Human (free fraction in plasma) (plasma protein [1]; plasma): 0.023; in vivo Vd_(L/kg)_Human ([2]; in vivo, iv): 1.000 L/kg |
| CN(C)CCOC(c1ccccc1)c1ccccc1 [Diphenhydramine] | 6.500 | – | – | fp_Human (free fraction in plasma) (plasma protein [1]; [5]): 0.190 |
| NS(=O)(=O)c1cc(C(=O)O)c(NCc2ccco2)cc1Cl [Furosemide] | 0.120 | 0.363 | 0.363 | – |
| CCN(CC)CC(=O)Nc1c(C)cccc1C [Lidocaine] | 1.450 | 0.251 | 0.251 | in vivo MRT_(hr)_Human [4]: 1.510 h |
| CN1CC[C@]23c4c5ccc(O)c4O[C@H]2[C@@H](O)C=C[C@H]3[C@H]1C5 [Morphine] | – | – | – | fp_Human (plasma protein [1]): 0.650; fp_Human (free fraction in plasma) (plasma protein [1]; plasma): 0.650; in vivo Vd_(L/kg)_Human ([2]; in vivo, iv): 2.800 L/kg |
| COc1ccc2cc([C@H](C)C(=O)O)ccc2c1 [Naproxen] | 0.095 | 0.001 | 0.001 | in vivo MRT_(hr)_Human [4]: 22.619 h |
| CCCNCC(O)COc1ccccc1C(=O)CCc1ccccc1 (centres unmarked) [Propafenone] | – | – | – | fp_Human (plasma protein [1]; free fraction in human plasma, median if multiple values reported, Reference of Table S1): 0.046; in vivo Vd_(L/kg)_Human [2, 7]: 2.200 L/kg |
| Cc1cc(NS(=O)(=O)c2ccc(N)cc2)no1 [Sulfamethoxazole] | – | – | – | fp_Human (plasma protein [1]): 0.230; in vivo Vd_(L/kg)_Human [2, 7]: 0.300 L/kg |
